Read counts are not given, so values of variants with three or more changes are uncertain.
B1: LINE1-mini (parent)
chain: GGCAGAGCUCAACACAGCGUGGCAAAGUGGCUGUGGCUAGACUGCC

Variants of: B1
Experiment: self-cleavage, relative activity (ratio to wild type); higher = more cleavage; in vitro, sequencing; the parent is a self-cleaving ribozyme

Row | Variant | self-cleavage
1 | GGCCGAGCUCAACACAGCGUGGCAAAGUGGCUGUGGCUAGCCGGCC [A4C A41C U43G] | 0.02
2 | GGCCGAGCUCAACACAGCGUGGCACAGUGGCUGAGGCUAGACUGCC [A4C A25C U34A] | 0.05
3 | GGCCGAGUUCCACACAGCGUGACAAAGUGGCUGUGGCUGGACUGCC [A4C C8U A11C G22A A39G] | 0.01
4 | GGCCGAGCUGAACACAGAGUGGCAAAGUGGCUUUGGCUAGACUGCC [A4C C10G C18A G33U] | 0
5 | GGCCGAGCUCAACACUGCGUGGCAAAGUGGCUGUGACUAGACUGCC [A4C A16U G36A] | 0.05
6 | GGCCGAGCUCAACACAGCGUGGCACAGUGCCUGUGGCUAGACUGCC [A4C A25C G30C] | 0.09
7 | GGCCGAGCUCAACACAGCGUGGCAGAGUGGCUGAGGCUAGACUGCC [A4C A25G U34A] | 0.06
8 | GGCCGAGAUCAAUACACCUUGGCAAAGUGGCUGUGGCAAGUCUGCG [A4C C8A C13U G17C G19U U38A A41U C46G] | 0.09
9 | GGCCGAGCUCAACACAGCGUGGCAAGGUGGCUGUGGCUAGACUGCG [A4C A26G C46G] | 0.11
10 | GGCCGAGCUCAAAUUAGCGUGGCAAAGUGGCAGUGGCUAGAAUGCC [A4C C13A A14U C15U U32A C42A] | 0.9
11 | GGCCGAGCUCAGCACAGUGUGGCAAUGUGGCUGGGGCUAGACUGCC [A4C A12G C18U A26U U34G] | 0.07
12 | GGCCGAGCUCAUCACAGCGUGGCAAAGUGAGUGUGGCUAGACUGCC [A4C A12U G30A C31G] | 0.03
13 | GGCCGAGCUCAACACAGCGUGGCACAGUGGCUGUGGCUAGACCGCC [A4C A25C U43C] | 0.01
14 | GGCCGAGCUCAACCCAGCGUGGCAAAGUGUCUGUGGCUAGACUGCC [A4C A14C G30U] | 0.03
15 | GGCCGAGCUCAACACAGCGUGGCAACGUCGCUGUGGCUAGACUGCC [A4C A26C G29C] | 0.08
16 | GGCCGAGCUAAACACAGCGAGGCAAAGUGGCUGUGGCUAGACUGCC [A4C C10A U20A] | 0.01
17 | GGCCGAGCUGAACACAGCGGGGCAAAGUGGCUGUCGCUAGACUGCC [A4C C10G U20G G35C] | 0.02
18 | GGCCGAGCUCAACACAGCGUGGCAAAGUGGCUGUGGCUCAACUGCC [A4C A39C G40A] | 0.04
19 | GGCCGAGGUCAACACAGCGUGGGAAAGUGGCUGUGGCUAGAUUGCC [A4C C8G C23G C42U] | 0.03

Row | Variant | self-cleavage
20 | GGCCGAGCUCAACACAGCGUGGCAAAGUGGCUGUGGCUUGAUUGCC [A4C A39U C42U] | 0.09
21 | GGCCGAGCUAAACACAACGUGGCAAAGUGGCUGUGGCUAGACUGCC [A4C C10A G17A] | 0.04
22 | GGCCGAGCUCAAAACAGCGUAGCAAAGUGGCUGUGGCUAGACUGCC [A4C C13A G21A] | 0.14
23 | GGCCGAGCUCAACACGGCGUGGUAAAGUAGCCGUGGCUAGAGUGCC [A4C A16G C23U G29A U32C C42G] | 0
24 | GGCCGAGCUCAACGCAGCGUGGCAAAGUGGCUGUGGAUAAACUGCC [A4C A14G C37A G40A] | 0
25 | GGCCGAGCUCAGCACAGCGUGGCAAAGUAGCUGUGGCUAGACUGCC [A4C A12G G29A] | 0.14
26 | GGCCGAGCUAAACACAGCGUCGCAAAGUGGCUGUGACUAGACUGCC [A4C C10A G21C G36A] | 0.03
27 | GGCCGAGUUAAACACAGCGUGGCAAGGUGGCUGUGGCUCGACUGCC [A4C C8U C10A A26G A39C] | 0.01
28 | GGCCGAGCUCAACCCAGCGUGGCCAAGUGGCUGUGGCUAGACUGGC [A4C A14C A24C C45G] | 0.04
29 | GGCCGAGCUCAACCCAGCGUGGCAAAGUGGCUGUGGCUAGAUUGCC [A4C A14C C42U] | 0.35
30 | GGCCGAGUUCAACACAGCGUGGCAUAGUGGCUGUGGCUAGACUGCC [A4C C8U A25U] | 0.05
31 | GGCCGAGUACAACACAGUGUGGCAAAGUGGCUGUGGCUAGACUGCC [A4C C8U U9A C18U] | 0.34
32 | GGCCGAGCUCAAAACAGCGUUGCAAAGUGGCUGUUGCUAGACUGCC [A4C C13A G21U G35U] | 0.11
33 | GGCCGAGGUCAACACUGCGUUGCAAAGUGGCUGUCGCUAGAAUGCC [A4C C8G A16U G21U G35C C42A] | 0.01
34 | GGCCGAGCUCAACACGGCGUGGCAAACUGGCUGUGGCUAGACAGCC [A4C A16G G27C U43A] | 0
35 | GGCCGAGCUCAACACAGCGUGGCAUAGUGGCUGUGGUUAGACUGCC [A4C A25U C37U] | 0.02
36 | GGCCGAGCUCAUCACAGCGUGGCAAGGUGGCUGUGGCUAGACUGCC [A4C A12U A26G] | 0.02
37 | GGCCGAGCUAAACAUAGCGUGGCAAAGGGGCUGUGGCUGCACUGCC [A4C C10A C15U U28G A39G G40C] | 0
38 | GGCCGAGCUCAACACAGCGUGGCAACGUGGCUGUGGCUGGACUGCC [A4C A26C A39G] | 0.04

Row | Variant | self-cleavage
39 | GGCCGAGGUCAACACAGCGUGGGAAAGUGGCUGUGGGUAGACUGCG [A4C C8G C23G C37G C46G] | 0
40 | GGCCGAGCUCACCCCAGCGUGGCAAAGUGGCUGUGGCUAGACCGAC [A4C A12C A14C U43C C45A] | 0.01
41 | GGCCGAGCUCAACACAGCGUGGCUAAGUGGCUGUGGCAAGACUGCC [A4C A24U U38A] | 0.04
42 | GGCCGAGCUCAACACAGCGUGGCUAAGUGGCUGUGGCCAGACUGCC [A4C A24U U38C] | 0.07
43 | GGCCGAGGUCAACACAGCGUGACAAAGUGGCUGUGGCUAGACUGCC [A4C C8G G22A] | 0.01
44 | GGCCGAGUUCAAGACAGUGUGGCAAAGUGGCUGUGGCAAGACUGCC [A4C C8U C13G C18U U38A] | 0.09
45 | GGCCGAGCUCUACACAGCGUGGCAAAGUGGCUGUGGCUAGACUACC [A4C A11U G44A] | 0.03
46 | GGCCGAGCUUAACACAGCUUGGCAAAGUGGCUGUGGCUAGACUGCC [A4C C10U G19U] | 0.03
47 | GGCCGAGCUAAACACAGCGUGGCAAAGUGGCUGUGGAUAGACUGCC [A4C C10A C37A] | 0.02
48 | GGCCGAGUUCAACACAUCGUCGCAAAGUGGCUGUGGCAAGACUGCC [A4C C8U G17U G21C U38A] | 0.12
49 | GGCCGAGCUCAAAACAGAGUGGAAAAGUGGCUGUGGCCAGACUGCC [A4C C13A C18A C23A U38C] | 0.03
50 | GGCCGAGCUCAACACAGCGUGGCAAAGUGGCUGUGGCUAGUAUUCC [A4C A41U C42A G44U] | 0.11
51 | GGCCGAGUUCAACACAGGGUUGCAAAGUGGCUGUGGCUAGACUGAC [A4C C8U C18G G21U C45A] | 0.26
52 | GGCCGAGCUCAACUCAGCGGGACAAAGUGGCUGUGGCUAGACUGCC [A4C A14U U20G G22A] | 0.46
53 | GGCCGAGCUAAAGACGUCGUGGCAAAGUGGCUGUGGCUAGACUGCC [A4C C10A C13G A16G G17U] | 0.02
54 | GGCCGAGAUCAACACAGCGUGGCAAAGGGGCUGCGCCUAGACUGCC [A4C C8A U28G U34C G36C] | 0.04
55 | GGCCGAGCUCAACCCAGCGUGGCAAAGGGGCUGUGGCUAGGCUGCC [A4C A14C U28G A41G] | 0.02
56 | GGCCGAGCUCAACCCAGUGUGGCAAAGUGGCUGUGGCUAGACUACC [A4C A14C C18U G44A] | 0.04

Source: the RNAGym collection of RNA variant scans (doi:10.7554/elife.90254)
